The supplement of paper PMC4166925
± gives the standard deviation of the averaged measurements. The full ranking holds about 33,000 sequences; the median of “E-score (dimensionless, -0.5 to 0.5)” is about -0.049, and the highest 2% start at about 0.37. This is one part of the list.

tested on: T1, PmTbr T-box DNA-binding domain (GST fusion); experiment: PBM E-score of 8-mer (E-score (dimensionless, -0.5 to 0.5)); Tbr is Tbrain of the sea star Patiria miniata (Pm) or the sea urchin Strongylocentrotus purpuratus (Sp); higher = stronger binding preference; most listed sequences are background and not binding sites; conditions: the construct has about 5 more residues each side
T1 sequence: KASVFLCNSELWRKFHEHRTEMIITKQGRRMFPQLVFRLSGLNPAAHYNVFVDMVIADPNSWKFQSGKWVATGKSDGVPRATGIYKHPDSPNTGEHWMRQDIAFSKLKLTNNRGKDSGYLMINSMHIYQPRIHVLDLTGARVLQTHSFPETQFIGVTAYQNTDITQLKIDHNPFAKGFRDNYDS
How it was run: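 GST-fused Tbr T-box DNA-binding domains (the whole T-box plus about five flanking residues) were expressed in BL21 E. coli at 20 °C and purified by glutathione affinity chromatography. Universal Agilent oligonucleotide arrays were made double-stranded by primer extension, incubated with 200 nM protein in PBS (pH 7.5), then scanned and quantified. Every ungapped 8-mer was scored from probe intensities. The Universal PBM Analysis Suite gave each word an enrichment E-score, averaged over duplicate arrays.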

Row | Sequence | PBM E-score of 8-mer
1 | TTAACCAA | -0.0676 ± 0.0049
2 | GAAACGCA | -0.0127 ± 0.02
3 | CTCAGGGC | -0.0375 ± 0.077
4 | CTGCCTCC | -0.125 ± 0.0015
5 | AAAGGGGC | -0.191 ± 0.028
6 | AAGCCGGG | -0.191 ± 0.04
7 | TCCCTACA | -0.204 ± 0.044
8 | GTAGGAAC | 0.0806 ± 0.051
9 | GAATACCA | -0.0703 ± 0.089
10 | CGTTGTGA | 0.2 ± 0.0095
11 | CTTCCGCA | 0.166 ± 0.028
12 | CTATGGAA | -0.295 ± 0.035
13 | ACATATCA | 0.138 ± 0.029
14 | CTGGAAAG | -0.139 ± 0.0033
15 | CGAGTGGC | 0.0287 ± 0.02
16 | CAAACATG | -0.0089 ± 0.032
17 | ACCTTGGC | 0.296 ± 0.0078
18 | ACGTCGTC | 0.0437 ± 0.027
19 | CACAATAC | 0.164 ± 0.028
20 | AGCCAAAA | -0.197 ± 0.016
21 | AGTTCGTA | -0.0736 ± 0.051
22 | TGCGTCCA | -0.135 ± 0.031
23 | CTTGGTTC | -0.176 ± 0.029
24 | CCCGGTAC | -0.2142 ± 0.0021
25 | CCTGCACA | 0.0112 ± 0.14

Row | Sequence | PBM E-score of 8-mer
26 | ATGCATAA | -0.123 ± 0.032
27 | CTTGGTGC | 0.143 ± 0.062
28 | ATGCATCC | -0.123 ± 0.09
29 | GAATCCTA | -0.26 ± 0.057
30 | CTAGGGCA | -0.221 ± 0.044
31 | AGTCTCGC | 0.249 ± 0.07
32 | TCTCTTCA | -0.168 ± 0.053
33 | AAAGCCTA | -0.4185 ± 0.0012
34 | ATGTGTTA | 0.446 ± 0.0057
35 | CTCCCCAG | 0.0351 ± 0.044
36 | TAGGTGAA | 0.252 ± 0.033
37 | GCGACCAA | 0.0487 ± 0.036
38 | CGCGTAAA | 0.0685 ± 0.02
39 | AACGGCAA | -0.0855 ± 0.14
40 | CATTCATA | -0.125 ± 0.02
41 | ACCCTAAG | -0.0287 ± 0.042
42 | CTCCTCAC | 0.202 ± 0.017
43 | GTAGTCCA | -0.29 ± 0.033
44 | GCGCGGCA | 0.156 ± 0.014
45 | TACCGTAA | -0.203 ± 0.021
46 | AAAGGGTC | -0.358 ± 0.02
47 | AGGGCACG | -0.012 ± 0.013
48 | GCTATCGA | 0.126 ± 0.018
49 | TCAACACA | 0.219 ± 0.0044
50 | AGTCCAAT | -0.213 ± 0.064

Row | Sequence | PBM E-score of 8-mer
51 | CTCAATAA | -0.0683 ± 0.044
52 | CCTCGTGC | -0.0357 ± 0.027
53 | CAAGCGAC | 0.00558 ± 0.05
54 | GCTTAGCA | 0.117 ± 0.04
55 | ACTCATAG | -0.0685 ± 0.02
56 | CCTCGGAA | -0.0981 ± 0.029
57 | GCACTAGA | -0.0939 ± 0.0097
58 | ATACGTTA | 0.0272 ± 0.039
59 | AACGATAG | -0.167 ± 0.079
60 | CTAGCCCC | -0.175 ± 0.0022
61 | ATCAGAGC | -0.243 ± 0.0061
62 | ACCCTCTA | -0.0708 ± 0.043
63 | ATAGTCCC | -0.087 ± 0.0053
64 | AACGACAC | 0.303 ± 0.007
65 | ATCCGGAA | -0.23 ± 0.0099
66 | ACATGGAT | 0.0441 ± 0.048
67 | AACTGCGT | -0.0823 ± 0.031
68 | CATCTTTA | -0.19 ± 0.004
69 | AAAATTAT | -0.0438 ± 0.15
70 | ATCTTCAT | -0.00574 ± 0.021
71 | GATGAACA | 0.0325 ± 0.0038
72 | CTTGTTTC | -0.0329 ± 0.054
73 | GGGGGAGA | -0.162 ± 0.037
74 | GCTAGGCA | -0.0506 ± 0.035
75 | ACACCTTC | 0.479 ± 0.00068

Row | Sequence | PBM E-score of 8-mer
76 | ATTCGACA | 0.158 ± 0.053
77 | AGCCGCGG | -0.16 ± 0.1
78 | AGGACGGC | -0.301 ± 0.04
79 | AACCCTTA | -0.139 ± 0.028
80 | TACAGCAA | -0.151 ± 0.028
81 | CGGGTTCC | -0.20336 ± 4.2e-05
82 | AACTGAAC | -0.182 ± 0.052
83 | AGGAAGGA | -0.229 ± 0.01
84 | CATAAAAC | -0.189 ± 0.027
85 | CCAGCTGA | -0.0424 ± 0.022
86 | ATATGACA | 0.101 ± 0.082
87 | CATGGCGA | -0.00081 ± 0.067
88 | ATGTTGGG | -0.0371 ± 0.037
89 | CTACCACA | 0.0152 ± 0.068
90 | CCGCCTGC | 0.184 ± 0.037
91 | CCACTCAA | 0.0843 ± 0.014
92 | GTCGCCAA | 0.288 ± 0.038
93 | GAATTTAA | -0.00867 ± 0.05
94 | TCACAACA | 0.384 ± 0.00069
95 | CACCAACA | 0.251 ± 0.021
96 | AGTGGCTC | -0.186 ± 0.0041
97 | CATCTGTA | -0.0838 ± 0.0045
98 | AAGAACTA | -0.235 ± 0.024
99 | AGGTACAG | -0.284 ± 0.041
100 | TAGAAACA | -0.144 ± 0.083

Row | Sequence | PBM E-score of 8-mer
101 | GATATTGA | -0.161 ± 0.079
102 | TCGAGTCA | -0.171 ± 0.018
103 | CGTCTGGC | -0.0959 ± 0.043
104 | CTACGCAG | -0.0253 ± 0.12
105 | GCTGTAAA | 0.0931 ± 0.015
106 | ATCGCAGC | 0.0756 ± 0.056
107 | CCGGCAGC | -0.0338 ± 0.015
108 | AGGCTCCG | -0.0551 ± 0.12
109 | ATACACAA | -0.1389 ± 0.0012
110 | AAACGGGG | -0.0287 ± 0.035
111 | GACCAGAC | -0.276 ± 0.021
112 | ACGCGGAG | -0.106 ± 0.022
113 | CGGTCCCC | -0.3 ± 0.062
114 | AGGAGATA | -0.146 ± 0.09
115 | GGGCCGTA | -0.408 ± 0.049
116 | CGTCTTAG | 0.037 ± 0.033
117 | ATAGCAGG | 0.0422 ± 0.059
118 | CGCTGTAG | -0.0386 ± 0.073
119 | AACTCAGG | -0.0793 ± 0.031
120 | CGCCTTGC | 0.19 ± 0.058
121 | AGGATTTG | -0.266 ± 0.093
122 | TGACGTAA | -0.0667 ± 0.067
123 | ACCCAGAA | -0.0346 ± 0.026
124 | AAATTAGG | -0.13 ± 0.02
125 | AGGACTAC | -0.262 ± 0.041

Row | Sequence | PBM E-score of 8-mer
126 | AATAATTC | -0.0492 ± 0.051
127 | ATCCCTGC | -0.118 ± 0.023
128 | ATAATGAA | -0.127 ± 0.017
129 | AAGAGTCC | -0.179 ± 0.055
130 | ATTTAGGA | -0.254 ± 0.056
131 | CAGGCACC | -0.0396 ± 0.032
132 | GCCTCTGA | 0.0009 ± 0.067
133 | CTCGTCAG | 0.0897 ± 0.016
134 | ACATGCCA | 0.155 ± 0.0062
135 | CCGCTCTC | -0.118 ± 0.027
136 | CCGTAACG | -0.0369 ± 0.11
137 | TCAGGAGA | -0.2573 ± 0.0014
138 | GGAGAGCC | -0.27 ± 0.039
139 | AACGTGTC | 0.4102 ± 0.0015
140 | GAGGGAAC | -0.0842 ± 0.053
141 | GAGGTAAA | -0.149 ± 0.038
142 | ACGGTATA | 0.11 ± 0.029
143 | ACGTTGGG | 0.0498 ± 0.0094
144 | ATCCTGCC | -0.0684 ± 0.0044
145 | GCTTACAC | 0.205 ± 0.0004
146 | CCGCTCAC | 0.0824 ± 0.049
147 | GGAACAAC | -0.239 ± 0.011
148 | CCGTCTGA | -0.335 ± 0.036
149 | CCGTTTGA | -0.0869 ± 0.038
150 | ACTTAAGA | -0.0828 ± 0.02

Row | Sequence | PBM E-score of 8-mer
151 | ACAATAGC | 0.00889 ± 0.033
152 | GTGCGGCA | 0.0622 ± 0.029
153 | AGGATGTC | -0.1 ± 0.095
154 | GAAACATA | 0.0953 ± 0.011
155 | CTGGCGGA | -0.1756 ± 0.00055
156 | CGATGACA | 0.25 ± 0.052
157 | CTAGCCCA | -0.0665 ± 0.076
158 | ATCAGCTA | 0.047 ± 0.078
159 | AGTTCAGA | -0.124 ± 0.024
160 | CGCTCACA | 0.226 ± 0.05
161 | AGGACCTG | -0.121 ± 0.067
162 | ATAGACGA | -0.153 ± 0.086
163 | CCATGAAG | -0.0515 ± 0.11
164 | GCGCACTA | -0.094 ± 0.056
165 | GCGCGCCC | 0.116 ± 0.0012
166 | CTACAACA | 0.154 ± 0.0099
167 | ACTATTGC | -0.139 ± 0.045
168 | AAGTGAAA | 0.154 ± 0.056
169 | CTTAATCA | -0.0311 ± 0.061
170 | ACGACATA | -0.0803 ± 0.0047
171 | AACGTTGC | -0.0321 ± 0.016
172 | AGCAGCGA | -0.0709 ± 0.041
